# In the supplement of paper PMC8728848:
# Some of the results follow.
# B1: Cohesin-hDECTIN-1 (Homo sapiens) (protein)
# chain: LDITSHHHHHHDDLDAVRIKVDTVNAKPGDTVRIPVRFSGIPSKGIANCDFVYSYDPNVLEIIEIEPGDIIVDPNPDKSFDTAVYPDRKIIVFLFAEDSGTGAYAITKDGVFATIVAKVKEGAPNGLSVIKFVEVGGFANNDLVEQKTQFFDGGVNVGDTTEPATPTTPVTTPTTTDDLDAASSSPCPPNWIIYEKSCYLFSMSLNSWDGSKRQCWQLGSNLLKIDSSNELGFIVKQVSSQPDNSFWIGLSRPQTEVPWLWEDGSTFSSNLFQIRTTATQENPSPNCVWIHVSVIYDQLCSVPSYSICEKKFM
# Columns and labels:
# Experiment in all cases: glycan array binding signal (z-score within array); higher = stronger binding
# Details in all cases: glycan notation: IUPAC condensed, linker removed
# [1] = target: Neu5Ac(a2-6)GlcNAc(b1-4)GlcNAc(b1-4)GlcNAc
# Summary of the method: (§1)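 Glycan array data came from 3228 arrays in the Consortium for Functional Glycomics database, and only arrays with an available protein sequence were kept. Glycan names were put into IUPAC-condensed notation, and columns mapping to the same glycan were averaged. The binding signal is a within-array Z-score, averaged across arrays of one protein sequence run at different concentrations or buffers and across linkers. A negative Z-score can be read as non-binding.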
# Neu5Ac(a2-8)Neu5Ac = target: Neu5Ac(a2-8)Neu5Ac
# Summary of the method: as §1
# [2] = target: Neu5Ac(a2-8)Neu5Ac(a2-3)Gal(b1-3)GalNAc(b1-4)[Neu5Ac(a2-3)]Gal(b1-4)Glc
# Summary of the method: as §1
# [3] = target: Neu5Ac(a2-8)Neu5Ac(a2-3)Gal(b1-3)GalNAc(b1-4)[Neu5Ac(a2-8)Neu5Ac(a2-3)]Gal(b1-4)Glc
# Summary of the method: as §1
# [4] = target: Neu5Ac(a2-8)Neu5Ac(a2-3)Gal(b1-4)Glc
# Summary of the method: as §1
# [5] = target: Neu5Ac(a2-8)Neu5Ac(a2-3)Gal(b1-4)GlcNAc
# Summary of the method: as §1
# [6] = target: Neu5Ac(a2-8)Neu5Ac(a2-3)[Gal(b1-3)GalNAc(b1-4)]Gal(b1-4)Glc
# Summary of the method: as §1
# [7] = target: Neu5Ac(a2-8)Neu5Ac(a2-3)[GalNAc(b1-4)]Gal(b1-4)Glc
# Summary of the method: as §1
# [8] = target: Neu5Ac(a2-8)Neu5Ac(a2-8)Neu5Ac
# Summary of the method: as §1
# [9] = target: Neu5Ac(a2-8)Neu5Ac(a2-8)Neu5Ac(a2-3)Gal(b1-4)Glc
# Summary of the method: as §1
# [10] = target: Neu5Ac(a2-8)Neu5Ac(a2-8)Neu5Ac(a2-3)[Gal(b1-3)GalNAc(b1-4)]Gal(b1-4)Glc
# Summary of the method: as §1
# [11] = target: Neu5Ac(a2-8)Neu5Ac(a2-8)Neu5Ac(a2-3)[GalNAc(b1-4)]Gal(b1-4)Glc
# Summary of the method: as §1
# [12] = target: Neu5Ac(a2-8)Neu5Ac(a2-8)Neu5Ac(a2-8)Neu5Ac(a2-3)[GalNAc(b1-4)]Gal(b1-4)Glc
# Summary of the method: as §1
# [13] = target: Neu5Ac(a2-8)Neu5Gc(a2-3)Gal(b1-4)GlcNAc
# Summary of the method: as §1
# [14] = target: Neu5Ac(b2-6)Gal(b1-4)GlcNAc
# Summary of the method: as §1
# Neu5Ac(b2-6)GalNAc = target: Neu5Ac(b2-6)GalNAc
# Summary of the method: as §1
# [15] = target: Neu5Ac9Ac(a2-3)Gal(b1-3)GlcNAc
# Summary of the method: as §1
# [16] = target: Neu5Ac9Ac(a2-3)Gal(b1-4)GlcNAc
# Summary of the method: as §1
# [17] = target: Neu5Ac9Ac(a2-6)Gal(b1-4)GlcNAc
# Summary of the method: as §1
# [18] = target: Neu5Gc(a2-3)Gal(b1-3)GlcNAc
# Summary of the method: as §1
# [19] = target: Neu5Gc(a2-3)Gal(b1-3)[Fuc(a1-4)]GlcNAc
# Summary of the method: as §1
# Neu5Gc(a2-3)Gal(b1-4)Glc = target: Neu5Gc(a2-3)Gal(b1-4)Glc
# Summary of the method: as §1
# [20] = target: Neu5Gc(a2-3)Gal(b1-4)GlcNAc
# Summary of the method: as §1
# [21] = target: Neu5Gc(a2-3)Gal(b1-4)GlcNAc(b1-3)Gal(b1-4)GlcNAc(b1-2)Man(a1-3)[Neu5Gc(a2-3)Gal(b1-4)GlcNAc(b1-3)Gal(b1-4)GlcNAc(b1-2)Man(a1-6)]Man(b1-4)GlcNAc(b1-4)GlcNAc
# Summary of the method: as §1
# [22] = target: Neu5Gc(a2-3)Gal(b1-4)[Fuc(a1-3)]GlcNAc
# Summary of the method: as §1
# [23] = target: Neu5Gc(a2-6)Gal(b1-4)GlcNAc
# Summary of the method: as §1
# Neu5Gc(a2-6)GalNAc = target: Neu5Gc(a2-6)GalNAc
# Summary of the method: as §1
# [24] = target: Neu5Gc(a2-8)Neu5Ac(a2-3)Gal(b1-4)GlcNAc
# Summary of the method: as §1
# [25] = target: Neu5Gc(a2-8)Neu5Gc(a2-3)Gal(b1-4)GlcNAc
# Summary of the method: as §1
# [26] = target: Neu5Gc(a2-8)Neu5Gc(a2-3)Gal(b1-4)GlcNAc(b1-3)Gal(b1-4)GlcNAc
# Summary of the method: as §1
# [27] = target: Neu5Gc(a2-8)Neu5Gc(a2-6)Gal(b1-4)GlcNAc
# Summary of the method: as §1
# [28] = target: Neu5Gc(b2-6)Gal(b1-4)GlcNAc
# Summary of the method: as §1
binder,measurement,setting,value
B1,glycan array binding signal (z-score),[1],-0.326
same,glycan array binding signal (z-score),Neu5Ac(a2-8)Neu5Ac,-0.512
same,glycan array binding signal (z-score),[2],-0.325
same,glycan array binding signal (z-score),[3],-0.362
same,glycan array binding signal (z-score),[4],-0.4
same,glycan array binding signal (z-score),[5],0.057
same,glycan array binding signal (z-score),[6],-0.161
same,glycan array binding signal (z-score),[7],0.971
same,glycan array binding signal (z-score),[8],-0.31
same,glycan array binding signal (z-score),[9],-0.569
same,glycan array binding signal (z-score),[10],-0.332
same,glycan array binding signal (z-score),[11],0.573
same,glycan array binding signal (z-score),[12],0.696
same,glycan array binding signal (z-score),[13],-0.156
same,glycan array binding signal (z-score),[14],-0.362
same,glycan array binding signal (z-score),Neu5Ac(b2-6)GalNAc,-0.285
same,glycan array binding signal (z-score),[15],0.799
same,glycan array binding signal (z-score),[16],-0.414
same,glycan array binding signal (z-score),[17],-0.335
same,glycan array binding signal (z-score),[18],0.164
same,glycan array binding signal (z-score),[19],-0.251
same,glycan array binding signal (z-score),Neu5Gc(a2-3)Gal(b1-4)Glc,-0.271
same,glycan array binding signal (z-score),[20],-0.334
same,glycan array binding signal (z-score),[21],0.103
same,glycan array binding signal (z-score),[22],-0.296
same,glycan array binding signal (z-score),[23],-0.121
same,glycan array binding signal (z-score),Neu5Gc(a2-6)GalNAc,2.2
same,glycan array binding signal (z-score),[24],-0.39
same,glycan array binding signal (z-score),[25],-0.504
same,glycan array binding signal (z-score),[26],-0.091
same,glycan array binding signal (z-score),[27],-0.323
same,glycan array binding signal (z-score),[28],-0.412
